Measurements as given in the supplement of paper PMC3334620.
Over roughly 33,000 sequences, “E-score (-0.5 to 0.5)” has its median near -0.016; the highest 2% begin near 0.31. This is one part of the list.

biological target: Cst6 (UniProt P40535); experiment: PBM E-score (8-mer binding enrichment) (E-score (-0.5 to 0.5)); higher = stronger / more preferred TF binding; most listed sequences are background and not binding sites; conditions: protein concentration: 200 nM; construct: GST-DNA-binding domain
In short: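 Full-length yeast transcription factors or their DNA-binding domains, GST-tagged and expressed with PURExpress, were applied at about 100-200 nM to universal all-10-mer Agilent arrays. These arrays had been made double-stranded by primer extension on fresh or once-stripped slides. Detection used fluorescent anti-GST, normalisation used masliner, and E-scores for ungapped eight-base words pooled with reverse complements came from the Universal PBM Analysis Suite.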

Row | Sequence | PBM E-score
1 | CGCATGAG | -0.162
2 | ATTACAAT | 0.196
3 | ATTCGTCG | 0.0126
4 | TGGTGTAA | 0.1
5 | CACTCCCA | -0.148
6 | AAACTACG | 0.0181
7 | AACTAAAA | 0.233
8 | CGGAAAAC | -0.056
9 | CATAGATC | -0.0174
10 | CGTTCGAA | 0.233
11 | AATGCAGA | 0.0493
12 | CCCCTCGC | -0.276
13 | GGACTACA | -0.197
14 | GCTGATAA | 0.0863
15 | ATAGCAGG | -0.0184
16 | AACTCAGG | -0.108
17 | CGCTGTAG | -0.126
18 | CGTCTTAG | -0.136
19 | AGGAGATA | -0.0562
20 | GGGCCGTA | 0.116
21 | ACGCGGAG | -0.0149
22 | CGGTCCCC | -0.411
23 | GACCAGAC | -0.163
24 | CTCGTCAG | 0.127
25 | CCGCTCTC | -0.132

Row | Sequence | PBM E-score
26 | ACATGCCA | -0.0166
27 | AATAATTC | 0.205
28 | ATCCCTGC | -0.24
29 | ACCCAGAA | 0.1
30 | AAATTAGG | 0.164
31 | AGGACTAC | -0.335
32 | AAGAGTCC | -0.322
33 | ATTTAGGA | 0.0979
34 | CAGGCACC | -0.213
35 | GCCTCTGA | -0.042
36 | ATAATGAA | 0.259
37 | CGCCTTGC | 0.195
38 | TGACGTAA | 0.499
39 | AGGATTTG | -0.0475
40 | CCGCCTGC | -0.123
41 | CCACTCAA | 0.145
42 | ATATGACA | 0.304
43 | CTACCACA | -0.155
44 | CATGGCGA | -0.0864
45 | ATGTTGGG | -0.11
46 | AGGAAGGA | -0.227
47 | AACCCTTA | 0.0775
48 | TACAGCAA | -0.00029
49 | CGGGTTCC | -0.141
50 | AACTGAAC | -0.122

Row | Sequence | PBM E-score
51 | CCAGCTGA | -0.0684
52 | CATAAAAC | 0.0797
53 | GGGGGAGA | -0.268
54 | ATTCGACA | -0.106
55 | AGCCGCGG | 0.195
56 | AGGACGGC | -0.0173
57 | GCTAGGCA | -0.246
58 | ACACCTTC | -0.0331
59 | ATCGCAGC | -0.00142
60 | GCTGTAAA | 0.00837
61 | ATACACAA | 0.154
62 | AAACGGGG | -0.0666
63 | CCGGCAGC | -0.237
64 | AGGCTCCG | -0.0345
65 | CTACGCAG | -0.00198
66 | CGTCTGGC | -0.143
67 | AGTGGCTC | -0.12
68 | CATCTGTA | -0.00016
69 | AAGAACTA | 0.116
70 | AGGTACAG | -0.186
71 | CACCAACA | -0.111
72 | TCGAGTCA | -0.0123
73 | GATATTGA | 0.12
74 | TAGAAACA | 0.13
75 | GAATTTAA | 0.141

Row | Sequence | PBM E-score
76 | GTCGCCAA | -0.179
77 | TCACAACA | 0.268
78 | CTAGGACA | -0.161
79 | ACAATACT | 0.197
80 | AAGCTTCA | -0.185
81 | CCTATAGG | -0.236
82 | CACCGCCC | -0.0408
83 | CTTGCTGA | -0.106
84 | CGAGTGTA | -0.114
85 | CGCGAGTC | -0.165
86 | ACACGGAT | 0.162
87 | GCAAACCC | -0.27
88 | GTAAGGGA | 0.00326
89 | AAACGGGT | -0.00178
90 | CTTAATCA | 0.137
91 | AACGTTGC | -0.0467
92 | AGCAGCGA | 0.0103
93 | ACGACATA | 0.257
94 | GAAACGTA | 0.126
95 | CCGAGGAC | -0.2
96 | GAACAGCA | -0.101
97 | ACAGTCGT | -0.105
98 | GTGGCGAA | -0.00674
99 | ATGACAAC | 0.302
100 | GCTCAACA | 0.00967

Row | Sequence | PBM E-score
101 | AAGCGACT | -0.123
102 | AAAATTCC | 0.129
103 | CACGAAGC | 0.0577
104 | ACTTGCCT | -0.0735
105 | GTTTCCCA | -0.028
106 | GATGCGAC | -0.0585
107 | CGCGGCAC | 0.324
108 | ACTTCGTC | 0.0738
109 | AGTTCCGA | -0.142
110 | GCATTTGA | 0.0785
111 | ACGGGGTA | -0.165
112 | CCGACTTC | -0.395
113 | TGCATAAA | 0.173
114 | GGTTGTCA | 0.0148
115 | AGGACCTC | -0.264
116 | AAGACTCT | -0.0379
117 | GTGCGGCA | 0.311
118 | ACAATAGC | -0.178
119 | CCGTCTGA | 0.0102
120 | CCGTTTGA | 0.0282
121 | ACTTAAGA | 0.0825
122 | CCGCTCAC | -0.0576
123 | ACGTTGGG | -0.0248
124 | ATCCTGCC | -0.201
125 | GCTTACAC | -0.0479

Row | Sequence | PBM E-score
126 | GGAACAAC | -0.062
127 | TCAGGAGA | 0.128
128 | CCGTAACG | -0.0115
129 | GAGGGAAC | -0.256
130 | GAGGTAAA | 0.181
131 | ACGGTATA | -0.0844
132 | GGAGAGCC | -0.134
133 | AACGTGTC | -0.0119
134 | GCGCACTA | -0.0139
135 | GCGCGCCC | -0.202
136 | AAGTGAAA | 0.193
137 | CTACAACA | -0.0236
138 | ACTATTGC | 0.148
139 | ATAGACGA | 0.0155
140 | CCATGAAG | 0.0223
141 | CTAGCCCA | -0.0917
142 | AGTTCAGA | 0.0563
143 | CGCTCACA | 0.00758
144 | AGGACCTG | -0.353
145 | ATCAGCTA | -0.0233
146 | AGGATGTC | -0.0121
147 | GAAACATA | 0.165
148 | CGATGACA | 0.383
149 | CTGGCGGA | -0.342
150 | ATGATACG | 0.297

Row | Sequence | PBM E-score
151 | CTCTGGCC | -0.206
152 | GTGACCAA | 0.0552
153 | CATTTCTA | 0.111
154 | AGAGTTGA | -0.0802
155 | AGATTTCG | 0.178
156 | TGTACCAA | 0.0216
157 | ACCGGCCG | 0.01
158 | GAACCCAC | -0.0399
159 | GACGGGAA | -0.102
160 | GAAGTCCC | -0.337
161 | AGTTTAGA | 0.0573
162 | AAACACGT | 0.179
163 | CCTATAAG | -0.228
164 | AGGTGGAA | -0.0392
165 | ACAAGTCG | -0.227
166 | ACAGATCC | 0.0419
167 | AATCAATT | 0.248
168 | AGGATACC | -0.251
169 | AGGCACTA | -0.0201
170 | AGCTAGCG | -0.155
171 | ATACGTCC | 0.061
172 | CAAGCAAC | 0.111
173 | ACCGAAGA | 0.0703
174 | CTCGGCAA | 0.0238
175 | AATTCTAG | 0.0866

Row | Sequence | PBM E-score
176 | ATTGGCTA | -0.122
177 | GTAACGTA | 0.302
178 | CTTTATCC | -0.0303
179 | GCAGACGC | -0.0713
180 | AAGGGGTC | -0.164
181 | GAGGTACA | -0.138
182 | GCCTCCCC | -0.158
183 | CTCGTCGA | -0.0115
184 | AACTGAAT | -0.0699
185 | CTATTCGC | 0.0102
186 | GTAATCAA | 0.313
187 | AACTATCT | 0.00607
188 | CCCCCTGC | -0.425
189 | AGTCCTGC | -0.188
190 | CTGAGCAC | -0.235
191 | CCATGACA | 0.271
192 | CTGCTGGA | -0.116
193 | ACCTATTA | 0.0751
194 | ATAAACTC | 0.125
195 | CAGTATCG | -0.113
196 | ACAAGCCA | -0.163
197 | ATTCATAA | 0.176
198 | CCGCACAG | -0.00582
199 | CGGCAAGC | -0.0498
200 | CCCTGGCG | -0.238

Row | Sequence | PBM E-score
201 | CTCGTGCC | 0.0129
202 | AGGCAATG | 0.185
203 | AGGGTGAC | 0.345
204 | GACCTTAA | -0.0362
205 | CTATATCC | -0.0137
206 | ATATCCTC | -0.0369
207 | CGACATTC | -0.00214
208 | AGAGTACT | -0.0636
209 | CAACTTGG | 0.0766
210 | AGGGTGAG | -0.176
211 | CATCATAA | 0.291
212 | AACGGCCC | -0.14
213 | CCAGAAAA | 0.0994
214 | CTAATGAC | 0.252
215 | CCGTGGTA | -0.0264
216 | CAGTAAAA | 0.104
217 | ATCGTGAA | -0.0848
218 | ACGGTATC | 0.0672
219 | CCGATAGA | -0.124
